The values below come from PubChem BioAssay AID1346428 (National Center for Advancing Translational Sciences (NCATS), 2018).

Structures are written as SMILES. Screen size: about 48,000 compounds; about 1,200 (2.5%) were called active. Not shown: some 2% with an inconclusive outcome.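 How the source made its calls: active means activation of at least 60% and not above a set upper limit (about 1 call in 100 departs from these limits); inconclusive means activation of 40% to 60%, or above that upper limit; inactive means activation under 40%.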 This is one part of the list.

This assay has as its target Probable G-protein coupled receptor 32 (Homo sapiens) (UniProt O75388). As to the kind of experiment: qHTS for Agonists of Human Resolvin D1 Receptor DRV1. Further: 0% is about no effect. As to conditions: CHO-K1 GPR32 beta-arrestin PathHunter luminescence, 90 min; at 76.9 µM; active compounds read high; zero percent set by DMSO-only wells. The procedure, abridged: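 GPR32 activation in stably transfected CHO-K1 cells, detected as beta-arrestin recruitment by enzyme-fragment complementation. Compound exposure: 90 min, 37 °C.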
Sequence of UniProt O75388 (O75388 whole entry, looked up, the tested form may be a part): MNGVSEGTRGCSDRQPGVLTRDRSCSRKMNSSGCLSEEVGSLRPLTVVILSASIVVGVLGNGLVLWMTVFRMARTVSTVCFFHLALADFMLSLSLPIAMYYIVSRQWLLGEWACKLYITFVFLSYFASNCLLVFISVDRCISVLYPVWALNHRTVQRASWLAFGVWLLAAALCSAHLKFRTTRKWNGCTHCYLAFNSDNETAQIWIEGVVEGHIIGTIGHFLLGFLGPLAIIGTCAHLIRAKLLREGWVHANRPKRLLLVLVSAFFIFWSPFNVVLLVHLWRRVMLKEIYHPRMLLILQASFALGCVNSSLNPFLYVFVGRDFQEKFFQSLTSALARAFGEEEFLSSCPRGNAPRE
In general terms: qHTS replaces the single test concentration by a dilution series.
In the case of `CCn1ccc2cc(S(=O)(=O)N3CCCN(C(=O)NCC(=O)OC)CC3)ccc21`, the activation is inactive: 9.16%.

As for `COc1cccc(-c2cc(C(F)(F)F)n3nc(C)c(-c4ccccc4)c3n2)c1`, the activation was inactive: 8.6%.

For the compound `Cc1ccccc1C(=O)NC1(C(F)(F)F)N=C(c2ccccc2)N(Cc2ccccc2)C1=O` (stereo not drawn), the activation is inactive: -17.7%.

`CCCCNC(=O)CSc1nc2cc3c(cc2c(=O)n1CCCCCC(=O)NCCc1ccc(OC)c(OC)c1)OCO3`: the activation was inactive: -8.27%.

For the compound `Cc1ccc2nc(N3CCC(C(=O)NCc4ccc(F)cc4)CC3)[nH]c2c1`, the activation was inactive: -14.3%.

On to `CCc1ccccc1N(C)C(=O)c1nn(C)c2c1CSc1ccccc1-2`, for which the activation is inactive: -10.8%.

For the compound `O=C(COc1ccccc1[N+](=O)[O-])Nc1cc(-c2nc3cc(Cl)ccc3o2)ccc1Cl`, the activation was inactive: 6.92%.

On to `COC(=O)c1ccc(Oc2nc3c(c(=O)n(C)c(=O)n3C)n2C(C)C)cc1`, for which the activation is inactive: -4.21%.

Consider `Cc1cc(C)c(S(=O)(=O)NCc2csc(-c3ccccc3)n2)c(C)c1`, for which the activation was inactive: -24.9%.

Take `Cc1ccc2nc(COc3cccc(NC(=O)c4cccc(Cl)c4)c3)cc(=O)n2c1`: the activation is inactive: 6.96%.

`CCC12CN3CC(C)(CN(C1)C3c1c[nH]c3ccc(OC)cc13)C2=O` (stereo not drawn): the activation was inactive: -10.7%.

Turning to `Cc1ccc2cccc(NC(=O)c3ccc(C#N)cc3F)c2n1`, the activation was inactive: -0.835%.

Take `Cc1ccc(OCC(=O)Nc2ccc3nc(SCC(=O)N4CCOCC4)sc3c2)cc1C`: the activation is inactive: 0.0536%.

Regarding `CCC(Sc1nc2cc3c(cc2c(=O)n1CCCC(=O)NCc1ccc(OC)cc1)OCO3)C(=O)NCCCOC` (stereo not drawn), the activation was inactive: -14.8%.

With `CCOC(=O)C1CCCN(C(=O)CCS(=O)(=O)c2cc3c(cc2Cl)NC(=O)CO3)C1` (stereo not drawn), the activation was inactive: -4.25%.

As to `CCN(CC)C(=O)c1sc2c(c1C)c(=O)n(-c1ccc(C)c(C)c1)c(=O)n2Cc1cccc(Cl)c1`, the activation is inactive: -6.41%.

On to `O=C1CN(C(=O)c2ccc(S(=O)(=O)N3CCCCC3)cc2)C(c2ccc(F)cc2)c2cc(Br)ccc2N1` (stereo not drawn), for which the activation was inactive: -19.5%.

Turning to `CC(=O)N1CCc2cc(CNS(=O)(=O)c3ccc(C(C)(C)C)cc3)ccc21`, the activation was inactive: -3.8%.

As to `Cc1ccccc1NC(=O)Cn1c(=O)n(CCC(=O)NCc2ccc3c(c2)OCO3)c(=O)c2sccc21`, the activation was inactive: -15.1%.

As for `Cn1ccc2c(OCC(=O)Nc3ccc([N+](=O)[O-])cc3)cccc2c1=O`, the activation is inactive: 2.03%.

Regarding `CSc1ccc(CNC(=O)CN2C(=O)C3CCCCN3c3ccc(C(=O)N4CCCC4)cc32)cc1` (stereo not drawn), the activation was inactive: -32.1%.

Regarding `CCOC(=O)C1CCN(C(=O)c2ccc3c(c2)sc2nc(-c4ccc(C)cc4)cn23)CC1`, the activation was inactive: -3.18%.

For the compound `FC(F)(F)c1ccc(-c2noc(-c3ccccc3Br)n2)cc1`, the activation is inactive: 16%.

Regarding `CCc1ccc(NC(=O)C2CCN(S(=O)(=O)c3c(C)noc3/C=C/c3ccco3)CC2)cc1`, the activation was inactive: -32.9%.

Take `COc1ccc(-c2nc3cc(C(C)C)ccc3o2)cc1NC(=O)c1ccc(C)c(Cl)c1`: the activation is inactive: -4.76%.

With `O=S(=O)(NCc1nc2cccnc2n1Cc1ccc(F)cc1)c1ccc(Cl)s1`, the activation is inactive: -25.6%.

As for `COc1ccc(NC(=O)c2cc(S(=O)(=O)NCCC3=CCCCC3)ccc2F)cc1`, the activation is inactive: 2.41%.

As to `COC(=O)c1cc2sc(C)cc2n1CC(=O)Nc1cccc(SC)c1`, the activation was inactive: 12.9%.

On to `Cc1ccc(CCNC(=O)c2ccc(CS(=O)(=O)Cc3cccc(C)c3)o2)cc1`, for which the activation is inactive: -6.33%.

As for `CCCCCC(=O)N(c1ccc(OCC)cc1)S(=O)(=O)c1ccc2c(c1)n(C)c(=O)n2C`, the activation is inactive: -4.57%.

`COc1ccc(Cn2ccc3nc(C)c(C(=O)N4CCN(c5ccccc5F)CC4)cc3c2=O)cc1`: the activation is inactive: -13.6%.

For the compound `Cc1ccc(NC(=O)Cn2cc3c(n2)CCC(C)C3)cc1C` (stereo not drawn), the activation was inactive: -7.59%.

For the compound `Cc1cccc(Cn2c(=O)n(Cc3ccc4c(c3)OCO4)c(=O)c3oc4ccccc4c32)c1`, the activation was inactive: -21.1%.

Turning to `CCc1ccccc1NC(=O)c1cc2nc(-c3ccc(OC)c(OC)c3)cc(C(F)(F)F)n2n1`, the activation is inactive: -3.42%.

As for `CCOc1ccc(CNC(=O)c2ccc3c(c2)nnn3C2CCCC2)cc1`, the activation was inactive: 6.23%.

For the compound `Cc1ccc(S(=O)(=O)C(CNC(=O)Cc2ccc(Cl)cc2)c2cccs2)cc1` (stereo not drawn), the activation was inactive: -13.9%.

Turning to `CC(C)C(=O)Nc1cccc(C(=O)Nc2nnc(CC(C)(C)C)s2)c1`, the activation was active: 61.7%.

As to `COc1ccccc1N1CCN(C(=O)Nc2cn(CC(C)C)c(=O)c3ccccc23)CC1`, the activation is inactive: -15%.

As to `CCOCCCNC(=O)c1c(NC(=O)c2cc(=O)c3ccccc3o2)sc2c1CCC2`, the activation is inactive: -18.9%.

As to `O=c1oc2c(CN3CCCC3)c(O)ccc2cc1-c1ccccc1`, the activation was inactive: 12.3%.

On to `COc1cc2ccccc2cc1C(=O)Nc1ccc2oc(-c3ccc(Cl)cc3)nc2c1`, for which the activation was inactive: -28.4%.

As for `CCOC(=O)c1ccc(NC(=O)Cn2ncc3c(C)n(Cc4ccccc4F)c(C)c3c2=O)cc1`, the activation is inactive: -9.31%.

In the case of `COC(=O)c1ccc(NC(=O)Cn2c(=O)nc(-c3ccccc3)c3ccccc32)cc1`, the activation is inactive: -10.9%.

As to `CCCCN(C)CC(O)Cn1cc(/C=C/C(=O)c2ccc(C)cc2)c2ccccc21` (stereo not drawn), the activation was active: 65%.

Take `CC(C)c1ccc(NC(=O)Nc2csc3c2CCCC3)cc1`: the activation was inactive: 19.3%.

In the case of `O=C(Nc1ccc(C(=O)OCc2cc(=O)n3c4c(sc3n2)CCCC4)cc1)c1ccc(Cl)cc1`, the activation was inactive: -25.9%.

On to `Cc1ccc2c(=O)cc(C(=O)Nc3c(C(=O)Nc4cccc(Cl)c4)oc4ccccc34)oc2c1`, for which the activation was inactive: -9.46%.

As to `O=C(c1ccc(Br)s1)N(Cc1cccnc1)c1nc2ccc(F)cc2s1`, the activation is inactive: -5.95%.

On to `CCOc1ccccc1NC(=O)CN1C(=O)COc2ccc(S(=O)(=O)N3CCCCC3)cc21`, for which the activation is inactive: -14%.

In the case of `CCOc1cccc(NC(=O)C2CC(=O)N(C)C(=Nc3ccc(F)cc3)S2)c1` (stereo not drawn), the activation is active: 77.6%.

Consider `Cc1ccc(N2C(=O)CSC23C(=O)N(CC(=O)NC2CCCCC2)c2ccccc23)cc1C` (stereo not drawn), for which the activation was inactive: -32.4%.

`Cn1cc(C(c2ccccc2)c2ccc(Cl)s2)c2ccccc21` (stereo not drawn): the activation is inactive: -28.7%.

Regarding `CCOC(=O)c1c(C)oc2ncnc(Nc3cc(Cl)ccc3OC)c12`, the activation was inactive: 9.79%.

As for `Nc1nc(=O)n([C@@H]2O[C@H](CO)[C@@H](O)[C@@H]2F)cc1I`, the activation was inactive: -10.4%.

Turning to `Cc1ccc(CNC(=O)C2CCN(S(=O)(=O)c3c(C)noc3/C=C/c3c(C)cc(C)cc3C)CC2)cc1`, the activation is inactive: -5.78%.

As to `CSc1ncc(C(=O)NCc2ccc(C)cc2)c(-c2ccccc2)n1`, the activation was inactive: 25.6%.

Take `Cc1ccc2nc(COc3ccccc3NC(=O)COc3ccccc3Cl)cc(=O)n2c1`: the activation was inactive: -0.858%.

On to `COc1ccc(-c2onc(C)c2C)cc1S(=O)(=O)N1CCN(c2ccc(Cl)cc2)CC1`, for which the activation was inactive: -5.42%.

Consider `O=C(CSc1nc2c([nH]c3ccccc32)c(=O)n1-c1ccccc1)N1CCOCC1`, for which the activation is inactive: -32.3%.

In the case of `CC(C)OC(=O)c1c(NC(=O)COc2cccc(Br)c2)sc2c1CCCC2`, the activation was inactive: 0.576%.

Turning to `CC(CNC(=O)C1CCN(S(=O)(=O)c2ccc3c(ccn3C)c2)CC1)c1ccccc1` (stereo not drawn), the activation was inactive: -19.1%.

With `CCCC(=O)c1cc(O)c(O)cc1O`, the activation was inactive: -74.3%.

Consider `CCN(CC)CCn1c(-c2ccccc2)csc1=Nc1ccccc1`, for which the activation was active: 84.7%.

With `CCCCN(CC)CCCNC(=O)C1CCCN(c2ncnc3c2nc2n3CCCCC2)C1` (stereo not drawn), the activation is inactive: -6.98%.

Turning to `COc1ccc(NC(=O)Cn2c(=O)n(Cc3ccccc3Cl)c(=O)c3cc(OC)c(OC)cc32)cc1OC`, the activation is inactive: 3.5%.

As to `Cc1ccc(OCCn2c(-c3ccc(Br)cc3)nc3ccccc3c2=O)cc1C`, the activation is inactive: -8.95%.

As for `O=C1CC(c2cccc(O)c2)c2cc3c(cc2N1)OCO3` (stereo not drawn), the activation is inactive: -4.45%.

With `Nc1nonc1C(=O)NCCNCc1cccc(Cl)c1Cl`, the activation was inactive: 20.2%.

For `Cc1c(CC(=O)NCCc2ccccc2F)c(=O)oc2cc(O)c(Cl)cc12`, the activation was inactive: 7.96%.

For the compound `O=C(COc1ccccc1[N+](=O)[O-])N1CCC(c2nc3ccccc3o2)CC1`, the activation was inactive: -3.54%.

For the compound `CC(C)S(=O)(=O)c1oc(-c2cccs2)nc1S(=O)(=O)c1ccc(F)cc1`, the activation was inactive: -14.5%.

As to `Cc1ccc(NC(=O)c2c(C)oc3ccc(O)c(CN4CCCCCC4)c23)cc1`, the activation was inactive: 14.6%.

For `Cc1ccc(-n2ncc3c(N(CC(C)C)CC(C)C)ncnc32)c(C)c1`, the activation was inactive: 29.6%.

For the compound `CCN(CCCNC(=O)c1cc(Nc2ccc(OC)cc2OC)nc2ccccc12)c1cccc(C)c1`, the activation is inactive: -3.06%.

In the case of `Cc1ccc(CCNC(=O)c2c(C)oc3nc(C)nc(N4CCOCC4)c23)cc1`, the activation was inactive: -19.2%.

Turning to `Cn1cc(-c2cc3n(n2)CCC(=O)N3CC(=O)NCc2ccc(Cl)cc2)c2ccccc21`, the activation is inactive: 30.3%.

Take `CCc1nc2ccc(C(=O)NCc3cccc(Br)c3)cc2nc1CC`: the activation was inactive: -26.6%.

With `COc1ccc(-c2nc3ccccc3s2)cc1NC(=O)COc1cccc(C)c1`, the activation is inactive: -19.3%.

`O=c1c(N2CCCCC2)csc2ccc(F)cc12`: the activation was inactive: 8.2%.

As for `CCc1ccc(S(=O)(=O)Nc2cc3c(cc2N2CCOCC2)n(C)c(=O)c(=O)n3C)cc1`, the activation was inactive: -3.86%.

As for `CCOc1ccc(NC(=O)C(=O)NCCc2ccccc2)cc1`, the activation was inactive: -4.7%.

Turning to `COc1ccc(C)cc1NC(=O)N1CCN(c2nnc(C)c3c(C)n(-c4ccccc4)nc23)CC1`, the activation was inactive: -11.3%.

Consider `O=C(Cn1c(=O)n(CCCS(=O)(=O)C2CCCCC2)c(=O)c2ccccc21)Nc1ccc(F)c(Cl)c1`, for which the activation was inactive: -2.75%.
